Experimental data as given in PubChem BioAssay (NCI).
Values joined by “and” are separate entries in the source; they are usually repeats but may differ in a detail not shown here. Equal values may be shown once.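 These data come from cells grown in 96-well plates and exposed to compound for 48 hours at five concentrations. Here, GI50 denotes the concentration required for 50% inhibition of growth. TGI marks complete inhibition of growth.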

These molecules were tested on NCI-H322M lung (assay: NCI tumour cell line growth inhibition, 48 h).

| SMILES | TGI | GI50 |
| --- | --- | --- |
| CC(C)[C@@H]1ON1C(C)c1ccccc1 (some centres not stated) | > 100 µM |  |
| C[C@H]1C=C2[C@@H]3CC(C)(C(=O)O)CC[C@]3(C)CC[C@]2(C)[C@]2(C)CC[C@H]3C(C)(C)[C@@H](OC(=O)c4cccc5c(=O)c6ccccc6[nH]c45)CC[C@]3(C)[C@@H]12 (some centres not stated) | > 100 µM |  |
| COc1nc(N)c(N=CC(OC(C)=O)C(OC(C)=O)C(COC(C)=O)OC(C)=O)c(=O)n1C (configuration not stated) | > 100 µM |  |
| N#C/C(=C\c1c[nH]c2ccccc12)C(=O)c1ccc(O)c(O)c1 | > 100 µM |  |
| O=C(CC(=O)Nc1ccccc1)N/N=C/c1cc(N=Nc2ccc(Br)cc2)ccc1O | > 10 µM |  |
| COCCOCOc1ccc(OCOCCOC)c2c1C(=O)c1ccccc1C2=O | > 100 µM |  |
| Cc1cc2c(c(C(=O)O)c1C)-c1cccc(F)c1C2=O | > 100 µM |  |
| COC(=O)c1nc(-c2ccccc2)oc1S(=O)(=O)n1nc(C)cc1N | > 100 µM | > 100 µM |
| OC1(c2ccccc2)CSC2=Nc3ccccc3C3CCN1N23 (configuration not stated) | 60.3 µM |  |
| Cc1n[nH]c(=O)n1/N=C/c1ccc([N+](=O)[O-])o1 | > 72.7 µM |  |
| C[C@@H]1O[C@@H](O[C@H]2CC[C@@]3(C)[C@H](CCC4[C@@H]3C(O)C[C@]3(C)[C@@H](c5ccc(=O)oc5)CC[C@]43O)C2)[C@H](O)[C@H](O)[C@H]1O (some centres not stated) | 0.0145 µM | < 0.00325 µM |
| c1ccc2c3c([nH]c2c1)C1CCCN1CC3 (configuration not stated) | > 10 µM |  |
| COc1ccc(C=O)c(NC(=O)C(C)C)c1 | > 100 µM |  |
| CCN(c1cccc(NC(=S)Nc2ccccc2N(CC)c2cc(-c3ccccc3)no2)c1)c1cc(-c2ccccc2)no1 | > 100 µM |  |
| BrCc1ccc(CBr)cc1 | 11.8 µM | 1.03 µM |
| CN(C)c1ccc(/C=C2\C=Cc3ccccc32)cc1 | > 100 µM |  |
| O=c1[nH]cnc2c(C3NC(CO)C(O)C3O)c[nH]c12 (configuration not stated) | > 100 µM | > 100 µM |
| COc1cc2c(cc1OC)C1(c3ccc(Cl)cc3)ON=C(c3ccccc3)N1CS2 (configuration not stated) | > 100 µM |  |
| CC(=O)OCC1OC(n2c(=O)[nH]c(=O)c3sccc32)C(Br)C1OC(C)=O (configuration not stated) | > 100 µM |  |
| COC(=O)C(C)(C)N=CN(C)C | > 100 µM |  |
| COC(=O)c1c(O)ccc2c1C1(Cc3ccccc3C1=O)C(O)O2 (configuration not stated) | > 100 µM |  |
| COc1cc(/C=C(/C#N)C(N)=O)ccc1O | > 100 µM |  |
| COc1ccc(/C=N/NC(=O)Cn2c(-c3ccc(S(C)(=O)=O)cc3)nc3cc(Cl)ccc32)cc1 | > 50 µM | 2.8 µM |
| C#CCOCC12C=CC(O1)C1C(=O)OCC12 (configuration not stated) | > 100 µM |  |

| SMILES | TGI | GI50 |
| --- | --- | --- |
| CCN(CCO)CC(C)Nc1ccc([N+](=O)[O-])c2sc3ccccc3c(=O)c12 (configuration not stated) | 3.54 µM | 1.12 µM |
| COC12c3ccccc3-c3ccccc3C1[C@H]1C(=O)OC(=O)[C@H]12 (some centres not stated) | > 10 µM |  |
| CCCCCCCCCCCCCP(=O)(O)NCC(N)=O | > 100 µM |  |
| O=C(N/N=C/c1cc(Cl)cc(Cl)c1O)c1ccccc1O | 28.8 µM | 2.25 µM |
| C[CH2][Pb]([CH2]C)([CH2]C)[O]C(=O)c1ccc2ccccc2n1 | > 10 µM | > 10 µM |
| CC(C)=CCC/C(C)=C/CC/C(C)=C/CC/C=C(\C)CC/C=C(\C)CCC(=O)Nc1ccn(C2OC(CO)C(O)C2(F)F)c(=O)n1 (configuration not stated) | 6.6 µM | 0.103 µM |
| CC(C)(C)c1cc(C2COC(c3cc(C(C)(C)C)c(O)c(C(C)(C)C)c3)CO2)cc(C(C)(C)C)c1O (configuration not stated) | > 100 µM |  |
| C=CCOC(=O)C1C2OC3(C(C(=O)OC)=C2C(=O)OC)c2ccccc2CCC13 (configuration not stated) | > 10 µM |  |
| COc1ccc(/C=C2\CN(C)C/C(=C\c3ccc(OC)c(OC)c3OC)C2=O)c(OC)c1OC | 0.677 µM |  |
| O[C@H]1[C@H](O)[C@@H](O)[C@@]2(O)C[C@@H](O)[C@@H]1N2 | > 100 µM |  |
| C/C(=C/CC[C@]1(CO)CC[C@]2(CO)[C@H](CC[C@@H]3[C@@]4(C)CC[C@H](OC5OCC(O)C(O)C5OC5OC(CO)C(O)C(O)C5O)C(C)(C)[C@@H]4CC[C@]32C)[C@H]1O)CO (some centres not stated) | > 100 µM |  |
| CC(=O)Oc1ccccc1C(=O)/C=C/c1cccc([N+](=O)[O-])c1 | 26.1 µM | 11.8 µM |
| Cc1ccc(N=Nc2c(O)c(C(=O)Nc3ccccc3)cc3ccccc23)c([N+](=O)[O-])c1 | > 100 µM |  |
| CCn1c2ccccc2c2cc(/C=C(/C#N)C(N)=O)ccc21 | > 100 µM | 54.8 µM |
| CCNC1=C(NC(=O)CC)C(=O)c2ccccc2C1=O | > 100 µM |  |
| CCCCCCN(N)C(=O)CC#N | > 100 µM |  |
| COc1cc2nc(NCCCCCNC(=O)c3ccco3)nc(N)c2cc1OC | 75.8 µM |  |
| C/C=C(\C)c1cc(O)c(C)c2c1Oc1cc(O)c(Cl)c(C)c1C(=O)O2 | 79.6 µM |  |
| Cc1ccc(/C=C2\CCCC(CN3CCCCC3)C2=O)cc1 (configuration not stated) | 29.6 µM |  |
| COc1cc(C(c2ccc3c(c2)OCO3)N2C(=O)CCC2C(=O)O)cc(OC)c1OC (configuration not stated) | > 100 µM |  |
| CNc1ccc(N)cc1C(=O)N1CCC[C@H]1CO | > 100 µM |  |
| CC(C)(CC(O)C#N)/[N+]([O-])=[N+](\[O-])C(C)(C)CC(O)C#N (configuration not stated) | > 100 µM |  |
| CC1CN1c1c(C(=O)/C=C/c2ccccc2)c(-c2ccccc2)nn(C)c1=O (configuration not stated) | 34.7 µM |  |
| Cc1cc(O)c(C(C)C)cc1C1(c2cc(C(C)C)c(O)cc2C)OC(=O)c2ccccc21 | > 32.3 µM |  |

| SMILES | TGI | GI50 |
| --- | --- | --- |
| CN1CCC(n2cnc(-c3ccc(F)cc3)c2-c2ccnc(N)n2)CC1 | > 25 µM | 10.9 µM |
| Fc1ccccc1C1SCc2nc3cc4ccccc4cc3n21 (configuration not stated) | > 100 µM |  |
| CN(CCCNC(=O)c1nn(-c2ccc(Cl)cc2Cl)c2c1Cc1ccccc1-2)CCCNC(=O)c1nn(-c2ccc(Cl)cc2Cl)c2c1Cc1ccccc1-2 | 3.21 µM |  |
| COc1ccc2c(c1OC)C(=O)OC2C1c2c(c([N+](=O)[O-])c3c(c2OC)OCO3)CCN1C (configuration not stated) | > 100 µM | > 100 µM |
| Cc1cccc(NC(=O)c2sc3nc4c(cc3c2N)CN(Cc2ccccc2)CC4)c1C | > 50 µM | 0.3 µM |
| O=C([CH-]C(=O)c1ccccc1)c1ccccc1.O=C([CH-]C(=O)c1ccccc1)c1ccccc1.[OH-].[OH-].[Ti+4] | > 100 µM | > 100 µM |
| O=[As](O)(O)c1ccc(N=Nc2ccc(O)cc2)cc1 | > 100 µM |  |
| COc1cc2c(c(OC)c1OC)-c1ccc(SC)c(=O)cc1[C@@H](NC1OC(CO)C(O)C(O)C1O)CC2 (some centres not stated) | > 100 µM | 0.0605 µM |
| COc1ccc(-c2cc(=O)c3c(OC)c(OC)c(OC)c(OC)c3o2)cc1 | > 100 µM |  |
| COc1cc(C2C3=C(COC3=O)Oc3cc4c(cc32)OCO4)cc(OC)c1OC(C)=O (configuration not stated) | > 100 µM |  |
| CCC(c1c[nH]c2ccc(Br)cc12)c1c[nH]c2ccc(Br)cc12 | 18.1 µM |  |
| COc1ccc2c(c1)OC1=C(C(=O)OC1)C2c1cc(OC)c2c(c1)OCO2 (configuration not stated) | > 100 µM | 0.0714 µM |
| Cc1cc(N(CCC#N)CCC#N)ccc1/C=C1/N=C(c2ccccc2)N(N)C1=O | > 100 µM |  |
| CC(C)(C)CN1CCn2c(nc3c(N)nccc32)S1 | > 100 µM | 8.07 µM |
| CN(CC(N)=O)C(=O)N(CCCl)N=O | > 100 µM |  |
| CCCCn1c(=O)c2c(nc3n2CCCN3CCc2ccc(OCC(=O)NCCN(CC)CC)cc2)n(CCCC)c1=O | 13.4 µM | 5.41 µM |
| Nc1nc(Cl)c(N)c(NCC2(CO)CC(CCCc3ccccc3)C2)n1 (configuration not stated) | > 100 µM |  |
| CCOC(=O)c1ccc(C(=O)C(C(C)=O)C(=O)OC(C)(C)C)[nH]1 (configuration not stated) | > 100 µM |  |
| CC1(O)OC(=O)C2=C1CCC1C2CCC2(C)C(O)CCC12 (configuration not stated) | > 100 µM |  |
| Nc1ccc(-c2nc3ccccc3[nH]2)c2ccccc12 | 96.9 µM | 6.17 µM |
| O=C(O)/C(Cl)=C(\Cl)C(=O)Nc1ccc(Cl)c(Cl)c1Cl | 49.4 µM |  |
| Cc1ccc(S(=O)(=O)NCCSCCSCCNS(=O)(=O)c2ccc(C)cc2)cc1 | > 100 µM |  |
| CN(CCCCCl)P(=O)(OCCS(=O)(=O)CC(NC(=O)CCC(N)C(=O)O)C(=O)NC(C(=O)O)c1ccccc1)OCC1OC(n2cc(F)c(=O)[nH]c2=O)CC1O (configuration not stated) | > 73.6 µM | 4.66 µM |
| Cc1cc(NCCCCCCCNc2cc(C)nc3cc([N+](=O)[O-])ccc23)c2ccc([N+](=O)[O-])cc2n1 | 25.9 µM |  |

| SMILES | TGI | GI50 |
| --- | --- | --- |
| CN1CCN(CC(O)COc2c(Br)c(Br)c(Br)c3c2OC(C)(C)C3)CC1 (configuration not stated) | 35.3 µM | 16.6 µM |
| CCOC(=O)CSc1nnc(C(Sc2nc(-c3ccccc3)c(-c3ccccc3)[nH]2)C(C)C)n1-c1ccccc1 (configuration not stated) | 23.9 µM |  |
| CCO/C=C1\N=C(c2ccccc2Br)OC1=O | > 100 µM |  |
| COC1O[C@@H]2C[C@H]3C(C)(C)CCC[C@]3(C)C3=CCCC1[C@@]32C (some centres not stated) | > 100 µM | > 100 µM |
| COc1ccc2cc(-c3c(-c4ccncc4)nc(-c4ccc(S(C)=O)cc4)n3C)ccc2c1 (configuration not stated) | > 25 µM | > 25 µM |
| CN(C)CCC(/C=C/c1ccccc1)=N\Nc1ccc(Cl)cc1Cl | 34.6 µM |  |
| CCN1C(=O)N(CC)C2C1NN=c1s/c(=C\c3ccccc3Br)c(=O)n12 (configuration not stated) | 22.7 µM | 0.0544 µM |
| Cc1ccc(C2=Nc3ccccc3SC(c3cccc([N+](=O)[O-])c3)C2)cc1 (configuration not stated) | > 100 µM |  |
| c1ccc(CSCCc2ccncc2)cc1 | > 100 µM |  |
| O=C(Cc1ccccc1)NN1C(=O)C(Cl)C1c1ccccc1O (configuration not stated) | > 100 µM |  |
| CCN(CC)Cc1sc2nc3ccccc3n2c1-c1ccc(OC)cc1 | > 100 µM |  |
| OC(c1cc2cc(Cl)c(Cl)cc2c2cc(C(F)(F)F)ccc12)C1CCCCN1 (configuration not stated) | 3.31 µM | 1.71 µM |
| Cc1nc(-c2ccc(N=Cc3ccc(N(CCOS(C)(=O)=O)CCOS(C)(=O)=O)cc3C)cc2)cs1 | > 100 µM |  |
| C/C1=C\[C@@H](O)C(=O)/C=C/C=C\c2csc(n2)[C@@H](C)NC(=O)C[C@@]2(CC1)S(=O)SC(=O)[C@]2(C)O (some centres not stated) | 0.596 µM and 2.51 µM | 0.109 µM |
| CCCCCn1sc(=O)n(Cc2ccc(CNC(=O)OCc3ccc4cccc(O)c4n3)cc2)c1=O | 17.5 µM | 4.76 µM |
| [N-]=[N+]=C1C(=O)C2CC3CC(C2)CC1C3 | > 100 µM |  |
| O=C(O)COc1c(Cl)cc(Cl)c2cccnc12 | > 100 µM |  |
| COc1ccc(CSc2ccccc2Cn2cccc2)cc1OC | > 100 µM |  |
| Cn1cc(-c2nonc2-c2cn(C)c3ccccc23)c2ccccc21 | > 100 µM | 4.39 µM |
| O=C(Nc1cccc(Nc2ncc(Br)c(NCCc3cnc[nH]3)n2)c1)N1CCCC1 | 34.8 µM | 6.63 µM |
| CCOc1ccc(-n2nnc3c(N)nc(N)nc32)cc1 | > 100 µM |  |
| COC(=O)c1cnn2c1n[n+]([O-])c1ccccc12 | > 100 µM |  |
| CC(NC(C)(C)C)C(=O)c1cccc(Cl)c1 (configuration not stated) | > 100 µM |  |
| N#Cc1ccc(N=Cc2c([O-])ccc3ccccc23)cc1.[C-]#[O+].[C-]#[O+].[Ir] | 33 µM | 15.7 µM |
